Test results as given in PubChem BioAssay AID504333 (National Center for Advancing Translational Sciences (NCATS), 2011).
Screen size: about 360,000 compounds; about 16,000 (4.4%) were called active. The inconclusive results got no clear call from the source; some entries with a clear call stand among them for comparison. The call rests on the fitted dose curve; in most records, active means well fitted inhibition curve with a large enough effect; inconclusive means small, poorly fitted or top-dose-only effect; inactive means no such curve, though single readings can be large or run the other way. Potencies of inconclusive entries are doubtful fits and often do not repeat.

These molecules were tested against Bromodomain adjacent to zinc finger domain protein 2B (Homo sapiens) (UniProt Q9UIF8) (assay: qHTS Assay for Inhibitors of BAZ2B). Settings: AlphaScreen BAZ2B-H3K14Ac peptide displacement; activity change, negative = inhibition: at 114 µM (top of the series).
Chain of UniProt Q9UIF8 (Q9UIF8 whole entry, looked up, the tested form may be a part): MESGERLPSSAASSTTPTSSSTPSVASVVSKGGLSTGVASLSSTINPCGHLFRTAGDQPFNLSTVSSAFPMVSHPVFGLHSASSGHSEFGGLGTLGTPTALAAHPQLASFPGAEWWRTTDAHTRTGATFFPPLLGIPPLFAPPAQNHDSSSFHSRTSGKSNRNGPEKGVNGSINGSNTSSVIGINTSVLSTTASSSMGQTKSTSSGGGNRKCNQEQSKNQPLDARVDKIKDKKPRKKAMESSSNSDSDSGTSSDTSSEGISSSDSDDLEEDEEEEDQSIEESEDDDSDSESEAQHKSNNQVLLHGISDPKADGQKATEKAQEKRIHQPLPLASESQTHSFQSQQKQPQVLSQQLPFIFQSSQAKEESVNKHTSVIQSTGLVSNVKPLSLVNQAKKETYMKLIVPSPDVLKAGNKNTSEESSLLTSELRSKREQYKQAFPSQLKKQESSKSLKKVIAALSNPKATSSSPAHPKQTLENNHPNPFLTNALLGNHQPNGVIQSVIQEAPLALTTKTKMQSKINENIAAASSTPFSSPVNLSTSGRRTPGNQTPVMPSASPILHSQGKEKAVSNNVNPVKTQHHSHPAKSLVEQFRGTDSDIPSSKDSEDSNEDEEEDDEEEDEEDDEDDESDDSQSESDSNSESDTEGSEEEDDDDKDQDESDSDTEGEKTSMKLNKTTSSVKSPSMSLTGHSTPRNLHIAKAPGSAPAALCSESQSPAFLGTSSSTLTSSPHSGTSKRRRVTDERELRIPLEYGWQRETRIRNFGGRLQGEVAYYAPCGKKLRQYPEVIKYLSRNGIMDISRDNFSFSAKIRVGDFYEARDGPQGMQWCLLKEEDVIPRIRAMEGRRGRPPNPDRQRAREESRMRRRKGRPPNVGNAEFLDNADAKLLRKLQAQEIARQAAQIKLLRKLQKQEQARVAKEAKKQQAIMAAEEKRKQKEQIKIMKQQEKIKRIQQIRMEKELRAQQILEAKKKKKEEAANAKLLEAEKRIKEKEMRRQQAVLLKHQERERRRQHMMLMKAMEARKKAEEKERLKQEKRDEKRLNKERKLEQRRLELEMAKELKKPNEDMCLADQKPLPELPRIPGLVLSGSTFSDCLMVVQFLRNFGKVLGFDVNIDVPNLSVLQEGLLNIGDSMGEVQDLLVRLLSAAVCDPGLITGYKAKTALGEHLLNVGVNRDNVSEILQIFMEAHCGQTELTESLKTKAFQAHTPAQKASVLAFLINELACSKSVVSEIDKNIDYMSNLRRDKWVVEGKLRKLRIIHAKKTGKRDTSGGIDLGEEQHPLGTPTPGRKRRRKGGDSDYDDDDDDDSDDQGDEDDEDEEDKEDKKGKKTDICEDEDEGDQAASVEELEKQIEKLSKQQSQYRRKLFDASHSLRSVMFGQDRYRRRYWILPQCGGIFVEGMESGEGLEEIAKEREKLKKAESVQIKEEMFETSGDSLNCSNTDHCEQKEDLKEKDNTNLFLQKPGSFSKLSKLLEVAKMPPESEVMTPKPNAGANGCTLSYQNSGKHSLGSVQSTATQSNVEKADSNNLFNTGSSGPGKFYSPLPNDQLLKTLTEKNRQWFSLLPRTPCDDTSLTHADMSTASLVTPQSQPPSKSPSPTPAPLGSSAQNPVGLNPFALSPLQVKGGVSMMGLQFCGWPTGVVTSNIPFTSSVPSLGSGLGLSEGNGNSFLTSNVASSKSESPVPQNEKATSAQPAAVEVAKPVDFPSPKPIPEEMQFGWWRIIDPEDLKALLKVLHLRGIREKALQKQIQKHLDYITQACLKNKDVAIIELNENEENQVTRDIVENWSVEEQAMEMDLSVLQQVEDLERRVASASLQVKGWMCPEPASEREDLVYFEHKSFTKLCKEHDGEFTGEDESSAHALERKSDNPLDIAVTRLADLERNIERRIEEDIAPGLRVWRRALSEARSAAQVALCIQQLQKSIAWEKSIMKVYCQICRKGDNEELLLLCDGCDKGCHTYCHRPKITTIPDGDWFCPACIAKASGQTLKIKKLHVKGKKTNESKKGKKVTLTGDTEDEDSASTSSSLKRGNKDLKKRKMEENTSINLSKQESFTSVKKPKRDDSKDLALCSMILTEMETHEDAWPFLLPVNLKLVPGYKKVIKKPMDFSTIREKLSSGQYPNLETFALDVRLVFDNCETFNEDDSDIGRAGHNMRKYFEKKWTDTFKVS
Procedure, shortened: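 Multi-concentration screen (max 110 uM) measuring displacement of acetylated histone H3 peptide from BAZ2B by AlphaScreen, using 50 nM protein, 50 nM peptide and 10 ug/mL streptavidin donor plus Ni-chelate acceptor beads.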
Further: nearly all actives have a fitted effect of over 60% in size.
On the % scale 0 is the no-effect control and ±100 the full control effect; potency means the concentration at half of the fitted maximal effect; tags describe the fitted curve by direction and shape.

Question: How did the Potency turn out when CCC(=O)NC(=S)Nc1ccc(S(=O)(=O)NC2CCCCC2)cc1 was run?
Answer: inconclusive: 1.26 µM [inhibitor, full curve, poor fit]

Question: With CCn1c(=O)c(C(=O)NCc2ccc(Cl)cc2)c(O)c2ccccc21 as the molecule, how does the Potency read?
Answer: inconclusive: 89.1 µM [inhibitor, single point]

Question: Which Potency does the source give for Cc1cc(C)c2c(=O)n(CC(=O)NCCCN3CCOCC3)sc2n1 here?
Answer: inconclusive: 79.4 µM [inhibitor, partial curve]

Question: For O=C(CCS(=O)(=O)c1nc(-c2ccc3c(c2)OCO3)cc(C(F)(F)F)n1)Nc1ccc(F)c(Cl)c1, which “activity change, negative = inhibition” value is on record?
Answer: inactive: 4.21%

Question: CN(C)c1ccc(C(CNS(=O)(=O)c2ccc(F)cc2)N2CCCC2)cc1 (stereo unspecified) was tested. Which Potency did it give?
Answer: inconclusive: 50.1 µM [inhibitor, partial curve, poor fit]

Question: Which Potency does the source give for Cc1cc(NCCCCO)n2c(nc3ccccc32)c1C#N here?
Answer: inconclusive: 89.1 µM [inhibitor, single point]

Question: For COc1ccc(S(=O)(=O)N2c3cc(C)ccc3OCC2C(C)(C)C)cc1 (stereo unspecified), which Potency is on record?
Answer: inconclusive: 89.1 µM [inhibitor, single point]

Question: With CCOC(=O)c1c(C)oc2nc(C)nc(NCCc3ccc(S(N)(=O)=O)cc3)c12 as the molecule, how does the “activity change, negative = inhibition” value read?
Answer: inactive: -1.64% [at 57.1 µM]

Question: How did the “activity change, negative = inhibition” value turn out when CCCSCCCNC(=O)CN1C(=O)COc2ccc(S(=O)(=O)N3CCCCCC3)cc21 was run?
Answer: inactive: -14.2%

Question: Cc1ccc(N=C2NC(=O)S/C2=C\c2ccco2)cc1 was tested. Which Potency did it give?
Answer: active: 63.1 µM

Question: How did the Potency turn out when O=[N+]([O-])c1ccc(C[n+]2cccc3ccc4cccnc4c32)cc1 was run?
Answer: active: 12.6 µM

Question: With O=C1C(=O)N(Cc2ccncc2)C(c2cccc(O)c2)/C1=C(\O)c1ccc2c(c1)OCCO2 (stereo unspecified) as the molecule, how does the Potency read?
Answer: inconclusive: 89.1 µM [inhibitor, single point]

Question: With CCOc1ccc(C(=O)Nc2ccc3nc(SCC(=O)N4CCOCC4)sc3c2)cc1 as the molecule, how does the Potency read?
Answer: inconclusive: 89.1 µM [inhibitor, single point]

Question: With CCN1CCN(C(=O)c2ccc3c(c2)N(Cc2cc(C)ccc2C)C(=O)c2ccccc2S3(=O)=O)CC1 as the molecule, how does the Potency read?
Answer: inconclusive: 70.8 µM [inhibitor, single point]

Question: How did the “activity change, negative = inhibition” value turn out when N#CCC(=O)Nc1ccc(C(=O)Nc2cccnc2)cc1 was run?
Answer: inactive: -10.6%

Question: Which Potency does the source give for CCOC(=O)c1c(C)c(C(=O)NCc2cccs2)c(C)n1C here?
Answer: inconclusive: 100 µM [inhibitor, single point]

Question: COc1ccccc1-c1nc(SCC(=O)N2CCC(C(N)=O)CC2)n[nH]1 was tested. Which “activity change, negative = inhibition” value did it give?
Answer: inactive: 4.87%

Question: For Cc1cccc(C)c1NC(=O)C1(N(Cc2ccco2)C(=O)CC2NC(=O)NC2=O)CCCC1 (stereo unspecified), which “activity change, negative = inhibition” value is on record?
Answer: inactive: 5.32%

Question: For CNc1ccc(OC(F)F)cc1C(=O)c1ccccc1, which Potency is on record?
Answer: inconclusive: 44.7 µM [inhibitor, partial curve]

Question: With Cc1cc(C)nc(N2CCCC(C(=O)Nc3nnc(C(C)(C)C)s3)C2)n1 (stereo unspecified) as the molecule, how does the Potency read?
Answer: inconclusive: 44.7 µM [inhibitor, partial curve]

Question: CC1(OC(=O)C2CCCC2)C(=O)C=C2C=C(c3ccsc3)N(CC3CC3)C=C2C1=O (stereo unspecified) was tested. Which Potency did it give?
Answer: inconclusive: 70.8 µM [inhibitor, single point]

Question: With O=C(/C=C/c1ccc(Cl)cc1Cl)N1CCN(c2ccccc2[N+](=O)[O-])CC1 as the molecule, how does the Potency read?
Answer: inconclusive: 22.4 µM [inhibitor, full curve]

Question: Which Potency does the source give for Cc1cc(O)ccc1Nc1nc(-c2cccs2)cs1 here?
Answer: inconclusive: 50.1 µM [inhibitor, partial curve]

Question: For CCn1c(SCC(=O)N2CCOCC2)nc2oc3c(Cl)cc(Cl)cc3c(=O)c2c1=O, which Potency is on record?
Answer: inconclusive: 44.7 µM [inhibitor, partial curve]

Question: CCOc1ccc(NC(=O)CN(C)C(=O)c2ccc(N3CCCCCC3)c([N+](=O)[O-])c2)cc1OCC was tested. Which Potency did it give?
Answer: inconclusive: 35.5 µM [inhibitor, partial curve]

Question: O=C(Cn1c(C(=O)N2CCN(C3CCCCC3)CC2)cc2sccc21)c1ccccc1 was tested. Which Potency did it give?
Answer: inconclusive: 89.1 µM [inhibitor, single point]

Question: With CCc1[nH]nc2c1C(C1C=CCCC1)C(C#N)=C(N)O2 (stereo unspecified) as the molecule, how does the “activity change, negative = inhibition” value read?
Answer: inactive: -16.7%

Question: For COc1ccc(C(=O)Nc2ccc(-c3cc(C(F)(F)F)nn3-c3ccccc3)cc2)cc1OC, which “activity change, negative = inhibition” value is on record?
Answer: inactive: -18.4%

Question: With Cc1ccc(C)c2[nH]c(=O)c(CN(Cc3ccco3)C(=S)NCC3CCCO3)cc12 (stereo unspecified) as the molecule, how does the Potency read?
Answer: inconclusive: 25.1 µM [inhibitor, full curve]

Question: COc1ccccc1NS(=O)(=O)c1cc(NC(=O)C2CC2)ccc1N1CCOCC1 was tested. Which “activity change, negative = inhibition” value did it give?
Answer: inactive: -35.2%

Question: How did the Potency turn out when CC(=O)n1cc([C@H]2C=C(C(=O)Nc3ccccc3)O[C@@H](OCCCCO)C2)c2ccccc21 was run?
Answer: inconclusive: 79.4 µM [inhibitor, single point]

Question: How did the “activity change, negative = inhibition” value turn out when O=C(NCc1cccnc1)C1CC(c2ccc(Cl)c(Cl)c2)=NO1 (stereo unspecified) was run?
Answer: inactive: 2.79%

Question: How did the Potency turn out when N#C/C(=C\c1cccnc1)C(=O)Nc1ccc(SC(F)F)cc1 was run?
Answer: inconclusive: 79.4 µM [inhibitor, single point]

Question: With COCCOC(=O)c1[nH]c2c(c1C)C(=O)CC(c1cc(OC)c(OC)c(OC)c1)C2 (stereo unspecified) as the molecule, how does the “activity change, negative = inhibition” value read?
Answer: inactive: 1.78%

Question: For CCCOC(=O)c1cccc(NC(=O)c2cccnc2)c1, which “activity change, negative = inhibition” value is on record?
Answer: inactive: 5.52%

Question: Which “activity change, negative = inhibition” value does the source give for CCCCN(C(=O)c1ccc2c(c1)OCO2)c1c(N)n(CCCC)c(=O)[nH]c1=O here?
Answer: inactive: 3.44%

Question: For CC1CCc2cc(F)ccc2N1C(=O)CSc1nnc2c(n1)[nH]c1ccc(F)cc12 (stereo unspecified), which Potency is on record?
Answer: inconclusive: 7.94 µM [inhibitor, partial curve]

Question: With CCOC(=O)N1CCN(C(=O)C2CCN(Cc3ccc(OC)cc3OC)CC2)CC1 as the molecule, how does the Potency read?
Answer: inconclusive: 89.1 µM [inhibitor, single point]

Question: Cc1ccc(S(=O)(=O)N2CCN(C(=O)CC(C)C)CC2)cc1 was tested. Which “activity change, negative = inhibition” value did it give?
Answer: inactive: 1.17%

Question: Which “activity change, negative = inhibition” value does the source give for COc1ccc(/C=C(\NC(=O)c2ccccc2)C(=O)NCc2ccco2)cc1OC here?
Answer: inactive: -8.59%

Question: With O=C(O)c1cccnc1Nc1cccc(C(F)(F)F)c1 as the molecule, how does the Potency read?
Answer: active: 79.4 µM

Question: O=C(c1ccccc1)c1ccc(C(=O)N2CCOCC2)cc1 was tested. Which “activity change, negative = inhibition” value did it give?
Answer: inactive: 3.82%

Question: With C[N+](C)(C)CC(=O)N/N=C/c1c2ccccc2cc2ccccc12 as the molecule, how does the Potency read?
Answer: active: 56.2 µM

Question: Which Potency does the source give for Cc1cc(-c2ccccc2)nc(N/N=C/c2ccc(O)cc2O)n1 here?
Answer: inconclusive: 35.5 µM [inhibitor, partial curve]

Question: How did the “activity change, negative = inhibition” value turn out when c1ccc(N2CCN(c3nc4cc5c(cc4s3)OCO5)CC2)cc1 was run?
Answer: inactive: 2.36%

Question: Which “activity change, negative = inhibition” value does the source give for COc1ccc(OC)c(C(C(=O)NC2CCCCC2)N(Cc2ccco2)C(=O)c2ccccn2)c1 (stereo unspecified) here?
Answer: inactive: -23.7%
